Source: PubChem BioAssay AID1362 (SRMLSC, 2008)
This is one part of the list. Shown are side measurements of this screen, not its main read-out; they come without a call. Compounds called inactive in the main read-out are mostly missing here.

Experiment: growth inhibition of WT strain, primary screen, mitochondrial fusion inhibitor project, WT and mutant strains, chemical genetic (AID 1362); also: tested in S. cerevisiae
Conditions: mitochondrial fusion phenotypic screen, at 10 µM

SMILES	inhibition [%]
CCCCC(=O)O[C@H]1CC[C@H]2[C@@H]3CCc4cc(O)ccc4[C@H]3CC[C@]12C	-5.58
Cc1ccc(NC(=O)NCC2CCN(Cc3cccc(Cl)c3)CC2)cc1Cl	51.3
N#CC(C#N)=C1C=CC=CN1/C(=C\c1ccco1)C(=O)c1ccc(Br)cc1	42.6
CCc1nnc(NC(=O)c2cccc(C(=O)Nc3nnc(CC)s3)n2)s1	9.24
Cc1ccccc1N=C(NOCc1ccc(Cl)cc1Cl)c1nonc1N	42.8
Fc1ccc(C(c2ccc(F)cc2)N2CCN(C/C=C/c3ccccc3)CC2)cc1	77.7
O=C(/C=C/c1ccc(Cl)cc1Cl)N(Cc1ccc(Cl)cc1)C1CCS(=O)(=O)C1 (stereo not drawn)	12
O=c1cc(N2CCCCC2)c(-c2ccccc2)nn1Cc1ccccc1Cl	45.6
O=C(Nc1cc(S(=O)(=O)N2CCOCC2)ccc1Cl)C(=O)c1c(-c2ccccc2)cc2ccccn12	94.5
O=C(Nc1ccc(Cl)c(Cl)c1)c1cccc(S(=O)(=O)NCc2cccnc2)c1	68.7
Cc1cc(C)cc(NC(=O)c2ccc([N+](=O)[O-])o2)c1	75.5
O=C(NC(=S)NCCC1=CCCCC1)c1ccc(Br)o1	47
CCOC(=O)CN1C(c2ccc(O)cc2)Nc2ccc(Br)cc2C1c1ccccc1 (stereo not drawn)	90.6
CCOC(=O)C1=C(Nc2ccccc2)CC(C)(O)C(C(=O)OCC)C1c1ccc(Cl)cc1 (stereo not drawn)	17.6
CC/C(=N\NC(=S)Nc1cccc(C)c1)c1ccccc1	69.7
O=C(C1=C[C@H](c2csc3ccccc23)C[C@H](OCc2ccc(CO)cc2)O1)N1CCN(Cc2ccc3c(c2)OCO3)CC1	31.6
CCCC[C@@H]1C[C@H]1[C@@H](NC(=O)c1ccco1)c1ccc(Cl)cc1	-1.03
Cc1ccc(/C=N/n2cc(-c3ccccc3)[nH]c2=S)s1	59.8
CCCCN(CCCC)c1ncnc2nc[nH]c12	77.1
COc1ccc(NC(=S)NC(NC(=O)c2ccc(Cl)cc2Cl)C(Cl)(Cl)Cl)c([N+](=O)[O-])c1 (stereo not drawn)	16.7
FC(F)(F)c1ccc(NC(=S)NCc2ccccc2)cc1	25.5
CCN=c1scc(-c2ccco2)n1/N=C/c1ccc(OC)c(O)c1	5.19
Cc1cc(NCc2ccccc2)nc(-c2ccccc2O)n1	43.5
Cc1ccc(C)c(/C=N/n2cc(-c3ccccc3)[nH]c2=S)c1	59
C/C(=N\N=C(/N)SC1CC(=O)N(c2ccc(Br)cc2)C1=O)c1cccs1 (stereo not drawn)	46.7
CCN(Cc1ccccc1)c1ccc(/C=N/NC(=S)NC(C)C)cc1	3.3
N#CC(C#N)=c1ccc2c(c1)N1C3=C(CCCC3)CC3CCCCC31N=2 (stereo not drawn)	22.7
CCOc1ccc(N2CC(C(=O)NC(C)C)CC2=O)cc1 (stereo not drawn)	-2.76
